We go through 45 sequences from the supplement of paper PMC11417369.

± gives the standard deviation of the averaged measurements. Some of the results follow.

For this assay, the system named is PfAP2-I AP2 domain 3 (GST-tagged). Kind of assay: gcPBM binding intensity (ln(normalized median fluorescence intensity)); higher = stronger DNA binding. An outline of the steps: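 GST-tagged P. falciparum DNA-binding domains, expressed in E. coli (about 25 μg on average), were applied for 1 h to an Agilent 4 × 180k array of primer-extended double-stranded 36-bp intergenic genomic probes plus negative controls. The binding buffer was 1× PBS with 1% milk, 0.2 mg/ml BSA, 0.5% salmon testes DNA and 0.03% Triton X-100. Bound protein was detected with Alexa488 anti-GST antibody and scanned at 488 nm. Binding intensity is the highest Masliner-normalised natural-log median intensity across replicate spots of either probe orientation.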
As to “ATATGTGAATAAAAATGTACGTGTTCTTTTTTTTTT [XGTACX_site320]”, the “gcPBM binding intensity (ln)” value came to 7.59 ± 0.4.
The result for “AACAAAAAAACAAACACACACACACCCATATATATA [CACACA_site3652]” reads 8.35 ± 0.53; that for TCAAAAATTTATATAGTGCAATATATATATAATGTA, 10.6 ± 0.72; that for “TGTGGCCCTGCGAGGTGGTCATCATGAATACGAAAA [XGTACX_site1526]”, 7.67 ± 0.55.
For the sequence TTAAAAAATATATGCGTGCACTAATATTTCATATGC, the “gcPBM binding intensity (ln)” value was 11.5 ± 0.2.
The result for “TGAATTAACAAATAGACACACATATATATATATATA [CACACA_site3195]” reads 9.34 ± 0.42.
Under “ACCATTTGTACTTACGCACACATAAAATATATATAT [CACACA_site1545]” stands 9.19 ± 0.085; under “TACTATTTTTATAATACACACATATATTTGTGATAT [CACACA_site1775]”, 7.84 ± 0.44; under “TAAAATCAATGTTCTTGTACTTAAAATGTTTGTTCT [XGTACX_site5490]”, 7.53 ± 0.57.
As for “ATATATCTATATAGAAATGTATATATATATATGTGT [TGCATGCA_negctrl_site349]”, the “gcPBM binding intensity (ln)” value stood at 7.96 ± 0.37.
Turning to “TATTATTCTACTATTATATTCTATATTATTTATAGT [CACACA_negctrl_site499]”, the “gcPBM binding intensity (ln)” value was 7.55 ± 0.53.
Under “AAAATTAAATTATTTACACACAATATTAAAATATTT [CACACA_site3244]” stands 7.61 ± 0.57; under “AGTATAAAATTTGGTTGTACATTTTTAAAAAAATTA [XGTACX_site7519]”, 7.79 ± 0.3; under “TATAATATAAAAAAAAGTACACGAATTTTTTTTCAG [XGTACX_site6105]”, 7.76 ± 0.2.
In the case of “AAATAAATTTGACCAGTGCAATAACTTTGTATACCT [GTGCAC_site9446]”, the “gcPBM binding intensity (ln)” value turned out to be 11.2 ± 0.64.
The result for “ATCCAAAAGAAAAATAGTACAGATATGAACAATATG [XGTACX_site6944]” reads 7.73 ± 0.68; that for “ACAATATATTTTTGAGCATGCGCAAAAGAGAATGCA [TGCATGCA_site566]”, 8.04 ± 0.38; that for “AAAAGTTGTATTTGCACACATAAAAAAAAGATATTA [CACACA_site3840]”, 9.54 ± 0.2.
Under “AACCCCAAGCCGTACTGTACATATATTTTTATTTTA [XGTACX_site142]” stands 8.12 ± 0.63.
Under “AAATTCAAACAAATTACACACATTTTTTTTTAATTT [CACACA_site3596]” stands 7.72 ± 0.7; under “TCAAAGGAATTTTTATGTACATATAAACTTTATTCT [XGTACX_site3432]”, 7.73 ± 0.33.
For “AAAAAAAAAAAAAAATGTACATATATATTTATATAT [XGTACX_site229]”, the “gcPBM binding intensity (ln)” value stood at 7.97 ± 0.17.
The result for “ATATCAATTTTTGGTGGTACGTAGGAAGTTTCAGAA [XGTACX_site6881]” reads 8.19 ± 0.26.
For the sequence “ACTTTAAAAAGATTCACACAAAATATATAAAAATAT [CACACA_site5334]”, the “gcPBM binding intensity (ln)” value was determined as 7.75 ± 0.39.
As for “AACATATACTGTTTATGTACACATTGTTATATTAAT [XGTACX_site4276]”, the “gcPBM binding intensity (ln)” value is 7.82 ± 0.42.
The result for “ATATAATTTAATTTCTGTACATAAGAGAAAAAACAA [XGTACX_site4865]” reads 8.06 ± 0.39; that for “TTATGCAAAAATAAATCAATATGTTGATATGTAAAT [GTGCAC_negctrl_site128]”, 8.17 ± 0.65; that for “TACATTTTATGCATTTGTACACAAATAAATAAATAA [XGTACX_site2652]”, 8.07 ± 0.45.
In the case of “TTTTTTTTTTTTTATACACACATTAAAATAAAAAAG [CACACA_site3946]”, the “gcPBM binding intensity (ln)” value came out at 8.07 ± 0.23.
The result for “CTCTTCCTTAATTTTTGTACTTAAAATTTTTTTTTT [XGTACX_site1628]” reads 8.08 ± 0.28.
As for “AAAGAAAAAAAAAAAACACACAAAAAAAATCAAAAT [CACACA_site2871]”, the “gcPBM binding intensity (ln)” value came out at 7.62 ± 0.7.
The result for “AAATTTATAAATTAAAGTACATATTTCTTGAATATT [XGTACX_site859]” reads 7.53 ± 0.42; that for “TATAGATACACTTTGTGTACATAAAAATTGTATTAA [XGTACX_site7137]”, 7.66 ± 0.29; that for “TATTAAATTATATAGACACACATTATGTATATATAT [CACACA_site345]”, 8.22 ± 0.7.
The result for “AAATGAAGATTTAAATGTACGAGAGGGTATACAAAT [XGTACX_site5075]” reads 8.44 ± 0.84; that for “CATAATATTAAATCAGTGCAAATATACAGAATAAAT [GTGCAC_site9786]”, 10.1 ± 0.17.
In the case of “GACTTCTCCATATACACACACCAACAAATATAAAAA [CACACA_site7331]”, the “gcPBM binding intensity (ln)” value is 8.5 ± 0.42.
Under “TATGTATAAATATTAACACACAAAAAAAAAAAAAAA [CACACA_site6938]” stands 8.06 ± 0.54; under “AATAAGCAGAAACACACACACAAAAAAAAAAAAAAA [CACACA_site719]”, 8.05 ± 0.7.
Regarding “GTTTGATAACACCTACAAACTCTTTTTTTTTTTTTT [CACACA_negctrl_site1134]”, the “gcPBM binding intensity (ln)” value worked out at 8.06 ± 0.7.
Under “ATATAAACAAAGCAGTGCACGTAAACAAAACATATA [CACACA_negctrl_site1076]” stands 10.5 ± 0.42.
The result for “TACGAAAGGTAATATTGTACATTACAAAATTTTATA [XGTACX_site5512]” reads 7.64 ± 0.5; that for TATATATATCTTTTGGTGCATATTTCGAATATATGT, 10.3 ± 0.4.
Under “TCGTTATCCATCTTCACACATATATATAGTAATATA [CACACA_site5492]” stands 8.27 ± 0.49; under “AAAAAAAAAATTGAAAGTACACAAATGGGGTATTAT [XGTACX_site3960]”, 7.95 ± 0.69.
